# Among all 110,000 compounds or so, about 230 (0.21%) showed an effect of 50% or more. Some of the results follow.
# Biological target: DPAP1 (Plasmodium falciparum, UniProt Q8IIJ9)
# Experiment: primary screen, percent inhibition; read by cleavage of a fluorogenic dipeptide substrate; higher = more effect of the substance
# Set-up: species or system P. falciparum D10 trophozoite lysates; single well
# 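Also: 30 min substrate incubation versus DMSO and 10 µM JCP410 controls.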
# Sequence of DPAP1 (Q8IIJ9 whole entry, looked up): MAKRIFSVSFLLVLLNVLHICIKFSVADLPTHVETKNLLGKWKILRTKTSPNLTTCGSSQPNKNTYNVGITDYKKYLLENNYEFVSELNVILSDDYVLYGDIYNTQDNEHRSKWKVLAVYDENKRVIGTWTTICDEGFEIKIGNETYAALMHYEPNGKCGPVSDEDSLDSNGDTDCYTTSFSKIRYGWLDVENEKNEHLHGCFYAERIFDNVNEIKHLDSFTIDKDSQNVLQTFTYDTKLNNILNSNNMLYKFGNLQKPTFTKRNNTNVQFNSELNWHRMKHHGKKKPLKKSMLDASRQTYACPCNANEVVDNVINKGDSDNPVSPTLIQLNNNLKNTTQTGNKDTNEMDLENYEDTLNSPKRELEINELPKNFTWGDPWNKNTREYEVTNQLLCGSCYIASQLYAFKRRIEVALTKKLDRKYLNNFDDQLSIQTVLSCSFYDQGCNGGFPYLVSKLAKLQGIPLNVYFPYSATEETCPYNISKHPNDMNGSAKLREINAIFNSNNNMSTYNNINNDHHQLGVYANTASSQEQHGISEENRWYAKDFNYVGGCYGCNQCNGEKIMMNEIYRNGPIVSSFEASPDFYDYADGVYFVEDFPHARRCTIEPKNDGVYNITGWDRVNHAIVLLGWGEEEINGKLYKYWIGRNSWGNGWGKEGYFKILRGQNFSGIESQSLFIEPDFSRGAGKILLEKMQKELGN
row,Structure (SMILES),% Inhibition @ 10 uM [%]
1,CC1CCN(CC(O)COC2CC(C)CCC2C(C)C)CC1 (stereo not drawn),-4.94
2,CCN(CC)c1ccc(CN2CC=C(c3ccc(F)cc3)CC2)c(O)c1,-0.0648
3,CCOc1ccc(OCc2cccc(C(=O)OCC3CCCO3)c2)cc1 (stereo not drawn),-5
4,CN(C)c1ccc(/C=C2\SC(N3CCN(Cc4ccccc4)CC3)=NC2=O)cc1,-5.11
5,COc1ccc(C2CC(=O)N=C(NC(=S)NC(C)C)N2)cc1 (stereo not drawn),-7.01
6,O=C(C[n+]1ccc2ccccc2c1)Nc1ccccc1,-0.305
7,CCOCCCNC(=O)NC12CC3CC(CC(C3)C1)C2,0.231
8,CCNC(=O)c1c(NC(=O)c2cc(=O)c3cc(Cl)ccc3o2)sc2c1CCCC2,1.9
9,CCc1ccc(CNc2ccc(CNc3nc[nH]n3)cc2)cc1,5.08
10,Cc1ccc(-n2nc3c(N4CCC(C(=O)NC5CCCCCC5)CC4)nnc(C)c3c2C)cc1,8.61
11,O=S(=O)(c1ccc2[nH]c3nc(SCc4ccccc4Cl)nnc3c2c1)N1CCCCC1,-7.57
12,COc1ccc(-c2cc(C(=O)Nc3ccccn3)c3ccccc3n2)cc1,-0.116
13,COc1ccc(N2CCN(C3CC(=O)N(CCc4ccc(OC)c(OC)c4)C3=O)CC2)cc1 (stereo not drawn),-5.27
14,O=C(c1cccc2ccccc12)n1nnc2ccccc21,6.12
15,COc1cccc(-c2nnc(SCC(=O)NCCOc3ccccc3)n2-c2ccccc2)c1,2.8
16,Cc1ccc(CN2CCC(CNS(=O)(=O)c3csc(C(N)=O)c3)C2)cc1 (stereo not drawn),1.9
17,Cc1oc(-c2ccc(Cl)cc2)nc1CS(=O)CC(=O)NC(C)C (stereo not drawn),0.689
18,Cc1ccc(N2C(=O)CC(NCc3ccccc3F)C2=O)cc1 (stereo not drawn),-4.56
19,CCOC(=O)C1=C(c2ccc(Cl)cc2)C(=O)c2ccccc2C1=O,5.29
20,O=C(CCCn1c(=O)c2sccc2n(Cc2cc(=O)n3ccccc3n2)c1=O)NCc1ccco1,-8.56
21,CC1CCCCC1NC(=O)C1CCCCC1C(=O)O (stereo not drawn),0.472
22,Brc1csc(CN2CCN(c3ncccn3)CC2)c1,-0.828
23,CN1CCC(NCc2ccccc2F)CC1,-0.0494
24,CC(C)c1ccc(C2c3c(-c4ccccc4O)n[nH]c3C(=O)N2Cc2cccnc2)cc1 (stereo not drawn),4.83
25,COc1ccccc1-c1c(C)nn2c(SCC(=O)NCc3cccnc3)cc(C)nc12,-5.55
26,O=C(NCCN1CCc2ccccc2C1)C1CCCN(c2ncnc3c2nc2n3CCCCC2)C1 (stereo not drawn),3.5
27,COc1ccc(/C=C2\SC(=O)N(Cc3ccc(F)cc3)C2=O)cc1C,9.42
